One experiment concerns the target dopamine D2 receptor (Homo sapiens, UniProt P14416). In words: biochemical. Particulars: D2 Ki (nM), Table 1; 0.4 nM [3H]spiperone, CHO-hD2L membranes.
Sequence of UniProt P14416 (P14416 whole entry): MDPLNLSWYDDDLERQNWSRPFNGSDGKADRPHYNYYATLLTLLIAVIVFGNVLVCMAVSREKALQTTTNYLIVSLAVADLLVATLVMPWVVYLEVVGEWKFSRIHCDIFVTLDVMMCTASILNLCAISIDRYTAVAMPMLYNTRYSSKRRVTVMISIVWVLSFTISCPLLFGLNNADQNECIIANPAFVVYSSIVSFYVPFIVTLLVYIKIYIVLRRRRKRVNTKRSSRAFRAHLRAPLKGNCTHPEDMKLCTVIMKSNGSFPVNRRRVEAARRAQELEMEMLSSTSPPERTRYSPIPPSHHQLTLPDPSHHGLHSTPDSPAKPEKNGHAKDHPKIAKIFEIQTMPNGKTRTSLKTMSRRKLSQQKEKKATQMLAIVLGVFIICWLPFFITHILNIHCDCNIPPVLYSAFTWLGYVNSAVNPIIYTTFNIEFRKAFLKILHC
As a reminder, the Ki is the dissociation constant of the complex between target and ligand, obtained from inhibition or displacement. A high value points to lower affinity. Turning to `CC(C)Oc1cccc(N2CCN(CCCCOc3ccc4c(n3)NC(=O)CC4)CC2)c1Cl` [Example A23, 7-{4-[4-(2-Chloro-3-isopropoxy-phenyl)-piperazin-1-yl]-butoxy}-3,4-dihydro-1H-[1,8]naphthyridin-2-one], the Ki stood at 14.9 nM.

With `CC(C)Oc1ccc(Cl)cc1N1CCN(CCCCOc2ccc3c(n2)NC(=O)CC3)CC1` [Example A25, 7-{4-[4-(5-Chloro-2-isopropoxy-phenyl)-piperazin-1-yl]-butoxy}-3,4-dihydro-1H-[1,8]naphthyridin-2-one], affinity was put at a Ki of 1 nM.

As for `CC(C)Oc1ccccc1N1CCN(CCCCOc2ccc3c(n2)NC(=O)CC3)CC1` [Example A26, 7-{4-[4-(2-Isopropoxy-phenyl)-piperazin-1-yl]-butoxy}-3,4-dihydro-1H-[1,8]naphthyridin-2-one], the Ki stood at 1 nM.

The compound `CC(C)COc1ccccc1N1CCN(CCCCOc2ccc3c(n2)NC(=O)CC3)CC1` [Example A27, 7-{4-[4-(2-Isobutoxy-phenyl)-piperazin-1-yl]-butoxy}-3,4-dihydro-1H-[1,8]naphthyridin-2-one] showed a Ki of 1.4 nM.

Consider `CC(=O)c1c(Cl)cccc1N1CCN(CCCCOc2ccc3c(n2)NC(=O)CC3)CC1` [Example A28, 7-{4-[4-(2-Acetyl-3-chloro-phenyl)-piperazin-1-yl]-butoxy}-3,4-dihydro-1H-[1,8]naphthyridin-2-one], for which the Ki amounted to 3.5 nM.

As to `CCc1c(Cl)cccc1N1CCN(CCCCOc2ccc3c(n2)NC(=O)CC3)CC1` [Example A29, 7-{4-[4-(3-Chloro-2-ethyl-phenyl)-piperazin-1-yl]-butoxy}-3,4-dihydro-1H-[1,8]naphthyridin-2-one], the affinity, expressed as Ki, was 2.5 nM.

`CC(=O)c1c(F)cccc1N1CCN(CCCCOc2ccc3c(n2)NC(=O)CC3)CC1` [Example A30, 7-{4-[4-(2-Acetyl-3-fluoro-phenyl)-piperazin-1-yl]-butoxy}-3,4-dihydro-1H-[1,8]naphthyridin-2-one] yielded an inhibitory constant (Ki) of 15.5 nM.

In the case of `CC(=O)c1cccc(N2CCN(CCCCOc3ccc4c(n3)NC(=O)CC4)CC2)c1` [Example A33, 7-{4-[4-(3-Acetyl-phenyl)-piperazin-1-yl]-butoxy}-3,4-dihydro-1H-[1,8]naphthyridin-2-one], the Ki was 15.5 nM.

Compound `CC(=O)c1ccccc1N1CCN(CCCCOc2ccc3c(n2)NC(=O)CC3)CC1` [Example A34, 7-{4-[4-(2-Acetyl-phenyl)-piperazin-1-yl]-butoxy}-3,4-dihydro-1H-[1,8]naphthyridin-2-one] had a Ki of 0.5 nM.

`CCc1ccccc1N1CCN(CCCCOc2ccc3c(n2)NC(=O)CC3)CC1` [Example A35, 7-{4-[4-(2-Ethyl-phenyl)-piperazin-1-yl]-butoxy}-3,4-dihydro-1H-[1,8]naphthyridin-2-one] showed a Ki of 0.3 nM.

With `O=C1CCc2ccc(OCCCCN3CCN(c4ccccc4C(F)(F)F)CC3)nc2N1` [Example A37, 7-{4-[4-(2-Trifluoromethyl-phenyl)-piperazin-1-yl]-butoxy}-3,4-dihydro-1H-[1,8]naphthyridin-2-one], the Ki amounted to 2.2 nM.

Staying with this experiment, now noted: D2 Ki (nM), Table 2; 0.4 nM [3H]spiperone, CHO-hD2L membranes.
`CC1(C)COc2c(cccc2N2CCN(CCCCOc3ccc4c(n3)NC(=O)CC4)CC2)C1` [Example A22′, 7-{4-[4-(3,3-Dimethyl-chroman-8-yl)-piperazin-1-yl]-butoxy}-3,4-dihydro-1H-[1,8]naphthyridin-2-one] returned a Ki of 0.7 nM.

In the case of `O=C1CCc2ccc(OCCCCN3CCN(c4cccc5ccoc45)CC3)nc2N1` [Example A23′, 7-[4-(4-Benzofuran-7-yl-piperazin-1-yl)-butoxy]-3,4-dihydro-1H-[1,8]naphthyridin-2-one], the Ki came out at 1.1 nM.

The compound `O=C1CCc2ccc(OCCCCN3CCN(c4cccc5cc[nH]c45)CC3)nc2N1` [Example A24′, 7-{4-[4-(1H-Indol-7-yl)-piperazin-1-yl]-butoxy}-3,4-dihydro-1H-[1,8]naphthyridin-2-one] returned a Ki of 2 nM.

In the case of `O=C1CCc2ccc(OCCCCN3CCN(c4cccc5[nH]ccc45)CC3)nc2N1` [Example A25′, 7-{4-[4-(1H-Indol-4-yl)-piperazin-1-yl]-butoxy}-3,4-dihydro-1H-[1,8]naphthyridin-2-one], the Ki was 1.4 nM.

Compound `Cn1ccc2c(N3CCN(CCCCOc4ccc5c(n4)NC(=O)CC5)CC3)cccc21` [Example A26′, 7-{4-[4-(1-Methyl-1H-indol-4-yl)-piperazin-1-yl]-butoxy}-3,4-dihydro-1H-[1,8]naphthyridin-2-one] displayed a Ki of 12.5 nM.

The compound `Cc1cc2c(N3CCN(CCCCOc4ccc5c(n4)NC(=O)CC5)CC3)cccc2[nH]1` [Example A27′, 7-{4-[4-(2-Methyl-1H-indol-4-yl)-piperazin-1-yl]-butoxy}-3,4-dihydro-1H-[1,8]naphthyridin-2-one] returned a Ki of 0.5 nM.

In turn, `O=C1CCc2ccc(OCCCCN3CCN(c4cccc5sccc45)CC3)nc2N1` [Example A28′, 7-[4-(4-Benzo[b]thiophen-4-yl-piperazin-1-yl)-butoxy]-3,4-dihydro-1H-[1,8]naphthyridin-2-one] displayed a Ki of 0.3 nM.

Compound `O=C1CCc2ccc(OCCCCN3CCN(c4cccc5nonc45)CC3)nc2N1` [Example A29′, 7-[4-(4-Benzo[1,2,5]oxadiazol-4-yl-piperazin-1-yl)-butoxy]-3,4-dihydro-1H-[1,8]naphthyridin-2-one] yielded a Ki of 7.4 nM.

`O=C1CCc2ccc(OCCCCN3CCN(c4cccc5nsnc45)CC3)nc2N1` [Example A30′, 7-[4-(4-Benzo[1,2,5]thiadiazol-4-yl-piperazin-1-yl)-butoxy]-3,4-dihydro-1H-[1,8]naphthyridin-2-one] came in with a Ki of 8.9 nM.

Compound `O=C1CCc2ccc(OCCCCN3CCN(c4cccc5nc(C(F)(F)F)[nH]c45)CC3)nc2N1` [Example A31′, 7-{4-[4-(2-Trifluoromethyl-3H-benzoimidazol-4-yl)-piperazin-1-yl]-butoxy}-3,4-dihydro-1H-[1,8]naphthyridin-2-one] showed a Ki of 0.6 nM.

`CN1CCCc2c1cccc2N1CCN(CCCCOc2ccc3c(n2)NC(=O)CC3)CC1` [Example A32′, 7-{4-[4-(1-Methyl-1,2,3,4-tetrahydro-quinolin-5-yl)-piperazin-1-yl]-butoxy}-3,4-dihydro-1H-[1,8]naphthyridin-2-one] showed a Ki of 28 nM.

The compound `CCN1CCCc2c1cccc2N1CCN(CCCCOc2ccc3c(n2)NC(=O)CC3)CC1` [Example A33′, 7-{4-[4-(1-Ethyl-1,2,3,4-tetrahydro-quinolin-5-yl)-piperazin-1-yl]-butoxy}-3,4-dihydro-1H-[1,8]naphthyridin-2-one] registered a Ki of 17.3 nM.

Compound `O=C1CCc2ccc(OCCCCN3CCN(c4cccc5cccnc45)CC3)nc2N1` [Example A34′, 7-[4-(4-Quinolin-8-yl-piperazin-1-yl)-butoxy]-3,4-dihydro-1H-[1,8]naphthyridin-2-one] had a Ki of 1 nM.

In turn, `O=C1CCc2ccc(OCCCCN3CCN(c4cccc5ncccc45)CC3)nc2N1` [Example A35′, 7-[4-(4-Quinolin-5-yl-piperazin-1-yl)-butoxy]-3,4-dihydro-1H-[1,8]naphthyridin-2-one] came in with a Ki of 1.4 nM.

`O=C1CCc2ccc(OCCCCN3CCN(c4cccc5ccncc45)CC3)nc2N1` [Example A36′, 7-[4-(4-Isoquinolin-8-yl-piperazin-1-yl)-butoxy]-3,4-dihydro-1H-[1,8]naphthyridin-2-one] registered a Ki of 0.6 nM.

The values above are taken from patent publication US7160888B2, “[1,8]naphthyridin-2-ones and related compounds for the treatment of schizophrenia” (Warner Lambert Company LLC, priority 2003, dated 2007).
